Experimental data: PMC4336329 (PLoS ONE, 2015)
Out of some 310,000 compounds screened, about 2,200 (0.71%) showed an effect of 50% or more. The effect is printed as a negative number. Some of the results follow.

Target: human ether-à-go-go-related gene (hERG) potassium channel (human, UniProt Q12809)
Assay: primary screen, population patch clamp on CHO cells stably expressing hERG

human ether-à-go-go-related gene (hERG) potassium channel, sequence (Q12809 whole entry, looked up): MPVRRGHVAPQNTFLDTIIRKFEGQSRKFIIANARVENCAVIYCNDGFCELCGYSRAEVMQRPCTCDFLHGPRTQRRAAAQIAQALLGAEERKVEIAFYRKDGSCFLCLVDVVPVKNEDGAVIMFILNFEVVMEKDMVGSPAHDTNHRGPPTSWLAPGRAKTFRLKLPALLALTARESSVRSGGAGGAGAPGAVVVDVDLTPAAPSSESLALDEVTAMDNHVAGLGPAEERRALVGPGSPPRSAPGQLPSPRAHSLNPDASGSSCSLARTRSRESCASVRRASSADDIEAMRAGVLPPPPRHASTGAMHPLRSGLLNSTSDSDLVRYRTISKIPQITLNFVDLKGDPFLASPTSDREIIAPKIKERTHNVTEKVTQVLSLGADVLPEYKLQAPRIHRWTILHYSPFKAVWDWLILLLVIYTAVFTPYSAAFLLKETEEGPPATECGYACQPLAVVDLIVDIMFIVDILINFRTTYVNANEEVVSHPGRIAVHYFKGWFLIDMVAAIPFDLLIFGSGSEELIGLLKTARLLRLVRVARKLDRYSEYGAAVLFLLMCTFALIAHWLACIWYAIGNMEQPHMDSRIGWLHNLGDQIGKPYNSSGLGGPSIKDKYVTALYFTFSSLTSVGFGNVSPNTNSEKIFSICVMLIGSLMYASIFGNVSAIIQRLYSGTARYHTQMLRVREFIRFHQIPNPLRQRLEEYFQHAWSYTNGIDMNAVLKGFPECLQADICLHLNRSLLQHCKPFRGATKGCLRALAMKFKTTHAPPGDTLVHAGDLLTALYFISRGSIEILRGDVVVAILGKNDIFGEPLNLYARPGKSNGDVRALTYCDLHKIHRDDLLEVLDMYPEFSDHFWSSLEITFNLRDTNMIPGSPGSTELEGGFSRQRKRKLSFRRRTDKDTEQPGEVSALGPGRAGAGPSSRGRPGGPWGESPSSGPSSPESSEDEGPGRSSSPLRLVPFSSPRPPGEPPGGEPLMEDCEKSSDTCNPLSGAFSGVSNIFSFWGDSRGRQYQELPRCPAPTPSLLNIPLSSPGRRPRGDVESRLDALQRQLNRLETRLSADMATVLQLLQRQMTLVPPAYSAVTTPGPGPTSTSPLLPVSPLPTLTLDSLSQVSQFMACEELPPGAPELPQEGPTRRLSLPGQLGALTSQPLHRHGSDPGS

| Structure (SMILES) | hERG current change (%, negative = inhibition) at 1uM |
| --- | --- |
| COCCN(C(=O)COc1ccccc1)c1nnc(-c2cccnc2)s1 | 6.25% |
| CCOc1ccc(NC(=O)CSc2nc(N)c(-c3ccccc3)c(=O)[nH]2)cc1 | 9.49% |
| C/C(N)=C(/C#N)C(=O)CSc1nncn1-c1ccccc1 | 12.4% |
| O=C(c1cc(COc2c(F)cccc2F)on1)N1CCN(C2CCCCC2)CC1 | -0.235% |
| O=C1CCN(Cc2ccc(Br)cc2)CCN1[C@H](CO)c1ccccc1 | 9.52% |
| Fc1cccc(CSc2ccc3nnc(-c4ccccn4)n3n2)c1 | -50.2% |
| Cc1[nH]c2ccccc2c1/C=N/Nc1ccc([N+](=O)[O-])cc1 | 5.5% |
| COC1(OC)C(/C=C/c2ccc(Cl)cc2)C(C#N)(C#N)C1(OC)OC (stereo not shown) | 8.36% |
| CCN1CCN(C(=O)c2ccc3nc(-c4ccccc4)c(-c4ccccc4)nc3c2)CC1 | 6.96% |
| Cc1cc(C)c2c(=O)[nH]cnc2n1 | 1.94% |
| COc1ccc(-c2nc(CC(=O)Nc3cccc(S(=O)(=O)NC4=NCCC4)c3)cs2)cc1 | 16.5% |
| N#Cc1ncc(C(F)(F)F)cc1Oc1cccnc1 | 5.55% |
| Nn1c(Cc2cccc3ccccc23)nnc1SCc1ccccc1 | 10.2% |
| Fc1ccccc1-c1nnc2ccc3ccccc3n12 | 9.87% |
| Fc1cc(Br)ccc1Nc1nc2ccccc2n2nnnc12 | 5.3% |
| Cl.O=C(CN1CCN(c2ncccn2)CC1)NCCC1=CCCCC1 | 5.16% |
| COC(=O)c1ccccc1NC(=S)NC(=O)c1cccc2ccccc12 | 7.96% |
| O=C(N/N=C/c1ccccc1O)c1cc[n+]([O-])cc1 | 9.42% |
| CCOC(=O)c1sc(=S)n(Cc2ccccc2)c1N | 8.2% |
| Oc1ccc(/C=N/N2CCCCC2)cc1O | 14.2% |
| CCOc1ccccc1NC(=O)CCN1CCN(S(=O)(=O)c2ccc(OC)cc2)CC1 | 2.22% |
| Cc1cc(SC(C)C(=O)Nc2ncc(Cl)cc2Cl)nc2ccccc12 (stereo not shown) | 12.1% |

| Structure (SMILES) | hERG current change (%, negative = inhibition) at 1uM |
| --- | --- |
| CC(=O)Nc1ccc(NC(=O)CN(C)CC(=O)Nc2ccccc2Br)cc1 | 4.27% |
| COc1cccc(N2CC(C)Cn3c2nc2c3c(=O)[nH]c(=O)n2C)c1 (stereo not shown) | 4.5% |
| Cc1ccc(-c2nc(CS(=O)(=O)CC(=O)N3CCCCCC3)c(C)o2)cc1 | 5.45% |
| COC(=O)c1ccc(NC(=O)c2ccc[n+]([O-])c2)cc1 | 13.1% |
| N#Cc1nc(-c2ccco2)oc1N1CCN(c2ccccc2)CC1 | -25.8% |
| CCCCn1c(N)c(N(CCOC)C(=O)c2ccc(S(=O)(=O)N3CCCCCC3)cc2)c(=O)[nH]c1=O | 8.4% |
| Cc1ccc([N+](=O)[O-])cc1S(=O)(=O)NCc1cccnc1 | 2.16% |
| Cc1cc(C)cc(NC(=S)NCCc2c[nH]c3ccccc23)c1 | 0.452% |
| O=C(CSC1=Nc2ccccc2C2=NC(CC(=O)N3CCN(c4ccccc4)CC3)C(=O)N12)NCC1CCCO1 (stereo not shown) | 10.3% |
| NS(=O)(=O)c1ccc(N/N=C2/CCCCC2C2CCCCC2)c([N+](=O)[O-])c1 (stereo not shown) | 14.4% |
| Cc1ccc(NC(=O)CSc2nnc(CNC(=O)c3ccco3)n2C)cc1C | 4.25% |
| COc1ccc(S(=O)(=O)N(CC(=O)NCC2CCCO2)C2CCCCC2)cc1OC (stereo not shown) | 13.4% |
| COC(=O)CSc1nnc(CNc2ccc(F)cc2)o1 | 11.8% |
| CC(C)CC(=O)C1=C(O)C(=O)N(Cc2ccccc2)C1c1ccccc1 (stereo not shown) | 15.8% |
| Cc1ccc(/C([O-])=C(/C(=S)NCc2ccc3c(c2)OCO3)[n+]2ccc(N(C)C)cc2)c(C)c1 | 4.82% |
| Cc1cccc(C)c1Nc1nnc(SCc2cn3cccc(C)c3n2)s1 | -1.37% |
| Cc1noc(C)c1CC(=O)NC1CC(C)(C)Cc2c1cnn2-c1ccccc1 (stereo not shown) | 15% |
| Br.N=C1c2ccccc2CN1NC(=O)c1ccc(Cl)cc1 | 9.65% |
| CC(Oc1ccc(Cl)cc1Cl)C(=O)NC1CCSC1=O (stereo not shown) | -1.23% |
| COCCNC(=O)/C(C#N)=C/c1ccc(-c2ccc(S(=O)(=O)N3CCOCC3)cc2)o1 | -5.96% |
| O=[N+]([O-])c1ccc(-c2nnc(-c3ccccc3)c(NCCCO)n2)cc1 | -12.1% |
| Cc1ccc(Cn2cccc(-c3nc4ccccc4s3)c2=O)cc1 | 9.36% |

| Structure (SMILES) | hERG current change (%, negative = inhibition) at 1uM |
| --- | --- |
| C=CCn1c(CSCc2ccc(F)cc2)n[nH]c1=S | 11% |
| CCc1noc(C)c1C(=O)NCCc1ccc(S(N)(=O)=O)cc1 | 14.9% |
| CCOC(=O)N1CCC(N2CCN(S(=O)(=O)CC)CC2)CC1.O=C(O)C(=O)O | 6.91% |
| Cc1ccc(CN2CCN(/N=C/c3ccc(C)s3)CC2)c(C)c1 | 3.66% |
| CCOC(=O)c1c(C)[nH]c(C(=O)COC(=O)/C=C/c2ccc(O)c(OC)c2)c1C | 7.7% |
| O=C(NCc1ccc2c(c1)OCO2)C1CC(c2ccc(Cl)c(Cl)c2)=NO1 (stereo not shown) | 11.2% |
| COc1ccc(-c2nc(C)ncc2-c2csc(C)n2)c(O)c1 | 12% |
| CC(C)Cc1nc2oc3c(Cl)ncnc3c2c2c1CCC2 | -4.68% |
| COc1ccc(N2CCN(C(=O)CSc3nnc4c(C)cc5cc(C)ccc5n34)CC2)cc1 | 3.46% |
| O=C(Nc1ccccc1C(=O)Nc1ccccn1)c1ccc([N+](=O)[O-])cc1 | -6.3% |
| CN(C)Cc1cc(C(C)(C)c2cc(CN(C)C)c(O)c(CN(C)C)c2)cc(CN(C)C)c1O | 0.44% |
| CC(=O)OC1CC2(C)/C(=N\O)CCC2C2CCc3cc(O)ccc3C12.CCO (stereo not shown) | 0.0879% |
| CCOc1ccccc1C1C(C(N)=O)=C(C)Nc2nc(-c3cccc(C)c3)nn21 (stereo not shown) | 7.25% |
| CCOC(=O)Cc1cc(=O)[nH]c(=O)[nH]1 | 9.73% |
| O=C(CCC1CCCN(C(=O)Cn2cnnn2)C1)NCc1ccc(F)c(F)c1 (stereo not shown) | 5.32% |
| CC(C)c1nnc(NC(=O)C2CCCN2C(=O)Nc2ccccc2F)s1 (stereo not shown) | 8.97% |
| Cc1cccc(NS(=O)(=O)c2ccc(C(=O)NCCCN3CCCC3=O)cc2)c1C | 11.8% |
| O=C(CN1C(=O)NC(Cc2ccccc2)C1=O)Nc1ccccc1OC(F)F (stereo not shown) | 1.65% |
| Cn1c(C(=O)N2CCCc3ccccc32)cc2c(=O)n3ccccc3nc21 | 1.34% |
| Cc1nnc(NC(=O)c2ccccc2-c2ccccc2C(=O)O)s1 | 6.34% |
| Cc1ccc(NC(=O)C2CC(=O)N(Cc3ccccc3)C2)cc1S(=O)(=O)N1CCCCCC1 (stereo not shown) | -0.853% |
| Cc1cccc(CSCCNC(=O)Nc2ccccc2)c1 | 1.59% |

| Structure (SMILES) | hERG current change (%, negative = inhibition) at 1uM |
| --- | --- |
| COc1ccc(N2CCN(C(=O)CN3C(=O)c4ccccc4S3(=O)=O)CC2)cc1 | 16% |
| Cc1cc(/C=C2\SC(N)=NC2=O)c(C)n1-c1ccccc1 | 13.4% |
| CCOc1cc(-n2cnnn2)c(OCC)cc1NC(=O)c1cnccn1 | 11.1% |
| Nc1nc2ccc(C(=O)N3CCCCC3)cc2s1 | 8.66% |
| CC(NCc1ccc2c(c1)OCO2)C(=O)NC1CCCCC1.O=C(O)C(=O)O (stereo not shown) | 21.5% |
| CN(Cc1nc(Cc2ccccc2F)no1)CC1(N2CCOCC2)CCCCC1 | -1.12% |
| Clc1ccccc1OCc1nc(-c2ccncc2)no1 | 2.87% |
| CCN(CC)CCCNC(=O)CCn1nc(-c2ccccc2)ccc1=O | -4% |
| COc1cc(C(=S)N2CCCCC2)ccc1O | 21% |
| CC(=O)c1cccc(NC(=O)CCCOc2ccc(C)cc2)c1 | 8.46% |
| Cc1nc2n(n1)C(O)c1cc([N+](=O)[O-])ccc1S2 (stereo not shown) | 3.4% |
| COc1ccc(-c2nc3ccccc3c(=O)n2CCCn2ccnc2)cc1 | -18.4% |
| COc1ccccc1CNC(=O)c1c(-c2ccccc2)nn(-c2ccccc2)c1C | 0.118% |
| COc1cccc(-n2ccnc2SCC(=O)Nc2ccccc2)c1 | 6.19% |
| Cc1cccc(C(=O)Nc2nnc(SCC(=O)NC3CC3)s2)c1 | 13.9% |
| Cc1cc(N2CCN(c3ccccc3)CC2)nc(NCc2ccccc2)n1 | 11.2% |
| CCN1C(=O)C(CC(=O)N2CCN(C(c3ccccc3)c3ccccc3)CC2)N(CC)C1=O (stereo not shown) | 7.42% |
| O=C1CCCN1CCCNc1nc2c(S(=O)(=O)c3ccccc3)nnn2c2ccc(Cl)cc12 | 1.08% |
| COc1ccc(C=O)cc1COc1c(F)c(F)cc(F)c1F | 9.41% |
| O=C(CN1CCN(S(=O)(=O)c2ccc(F)c(F)c2)CC1)Nc1ccccc1C(=O)NC1CC1 | -23.7% |
| CCOC(=O)c1ccc(NC(=O)N2CCN(Cc3cccc(F)c3)CC2)cc1 | 0.624% |
| CC(C)CN(C(=O)Cn1nnc(-c2ccc(F)cc2)n1)C1CCS(=O)(=O)C1 (stereo not shown) | 7.89% |
